# Laboratory results published in PMC6919601, “Identification of Plasmodium dipeptidyl aminopeptidase allosteric inhibitors by high throughput screening” (PLoS ONE, 2019).
# Out of some 110,000 compounds screened, about 230 (0.21%) showed an effect of 50% or more. This is one part of the list.
# Biological target: DPAP1 (Plasmodium falciparum, UniProt Q8IIJ9)
# Test: primary screen, percent inhibition; read by cleavage of a fluorogenic dipeptide substrate; higher = more effect of the substance
# Set-up: species or system P. falciparum D10 trophozoite lysates; single well
# 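Also: 30 min substrate incubation versus DMSO and 10 µM JCP410 controls.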
# DPAP1, sequence (Q8IIJ9 whole entry, looked up): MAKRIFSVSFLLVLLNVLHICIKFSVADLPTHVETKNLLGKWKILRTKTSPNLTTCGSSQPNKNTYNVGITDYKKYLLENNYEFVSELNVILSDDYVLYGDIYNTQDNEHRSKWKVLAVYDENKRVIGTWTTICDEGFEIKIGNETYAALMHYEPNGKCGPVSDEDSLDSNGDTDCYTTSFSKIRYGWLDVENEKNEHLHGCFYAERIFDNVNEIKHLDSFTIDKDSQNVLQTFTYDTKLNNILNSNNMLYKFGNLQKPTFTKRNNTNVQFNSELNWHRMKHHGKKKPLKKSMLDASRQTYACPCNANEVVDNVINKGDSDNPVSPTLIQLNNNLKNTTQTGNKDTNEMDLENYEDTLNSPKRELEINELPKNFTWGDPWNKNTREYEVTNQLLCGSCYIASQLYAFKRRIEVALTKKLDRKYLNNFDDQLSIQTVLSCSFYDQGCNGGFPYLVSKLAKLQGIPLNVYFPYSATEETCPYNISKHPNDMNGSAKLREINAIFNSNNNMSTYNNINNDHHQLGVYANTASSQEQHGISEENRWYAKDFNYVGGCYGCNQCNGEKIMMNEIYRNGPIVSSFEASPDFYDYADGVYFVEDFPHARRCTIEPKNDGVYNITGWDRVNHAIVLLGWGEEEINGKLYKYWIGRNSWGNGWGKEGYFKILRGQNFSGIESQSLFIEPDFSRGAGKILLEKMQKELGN
row,SMILES,% Inhibition @ 10 uM [%]
1,O=C(NCc1ccco1)C1CC(c2cccc(Br)c2)=NO1 (stereo not drawn),0.221
2,CCCC1CCc2nc3ccccc3c(C(=O)O)c2C1 (stereo not drawn),2.55
3,c1cc2c(cc1-c1cc(C3CCNCC3)n[nH]1)OCO2,-2.32
4,CC1(C)CC(NC(=O)C(=O)NCCc2ccccc2)CC(C)(C)N1,-1.33
5,COc1cccc(C2NC(CCSC)(C(=O)O)C3C(=O)N(C(C)C)C(=O)C23)c1O (stereo not drawn),2.7
6,O=C(N/C(=C\c1ccc(Br)cc1)C(=O)N(CCO)CCO)c1ccco1,7.1
7,c1ccc(Cc2c[nH]c3ccccc23)cc1,0.736
8,Cc1ccc(CN2C(=O)CCC2C(=O)NCc2ccc(F)cc2)cc1 (stereo not drawn),-0.0542
9,Fc1ccc(F)c(CN2CCN(C/C=C/c3ccccc3)CC2)c1,-2.21
10,CC(C)(C)c1ccc(S(=O)(=O)CCc2ccncc2)cc1,-6.82
11,NC(=O)NC(c1ccccc1)c1ccccc1Cl (stereo not drawn),0.177
12,CCC1CCc2c(sc(NC(=O)COc3ccc4ccccc4c3)c2C(N)=O)C1 (stereo not drawn),-2.68
13,CCOc1cc(C2c3c(oc4ccccc4c3=O)C(=O)N2c2nc(C)c(C(C)=O)s2)ccc1O (stereo not drawn),-0.828
14,CCCC(=O)N1CCS(=O)CC1,4.35
15,OCCN1CCN(Cc2ccc(Br)o2)CC1,-0.856
16,COc1ccc(NC(=O)CN(Cc2ccccc2)S(=O)(=O)c2ccc(F)cc2)cc1,3.56
17,Clc1cccc(OCCCCn2ccnc2)c1,1.74
18,CCOc1cc(CN2CCN(c3cccc(C(F)(F)F)c3)CC2)ccc1OC,4.81
19,CC1=C(c2ccc(C)c(C)c2)S(=O)(=O)N=C1N1CCN(C(=O)c2ccco2)CC1,-1.08
20,CCc1nn(CC(=O)NCc2ccccc2C)c(=O)c2cc3sc(C)cc3n12,9.33
21,CCOC(=O)C1=C(C)NC(=O)NC1c1ccc(OC(C)C)c(OC)c1 (stereo not drawn),-1.11
22,Cc1cc(-c2[nH]nc3c2C(c2cccs2)C(C#N)=C(N)O3)c(C)s1 (stereo not drawn),0.777
23,COc1ccc(CN2CCN(C)CC2)c(OC)c1C,-2.03
24,CCCCC1(c2ccccc2)C(=O)NC(=O)NC1=O,0.219
25,Cc1ccc(CNC(=O)CN(c2ccc(C)cc2)S(=O)(=O)c2ccccc2)cc1,-5.92

row,SMILES,% Inhibition @ 10 uM [%]
1,CCOC(=O)c1sc2ncnc(N)c2c1C,-1.2
2,O=C1ON=C(c2ccccc2)/C1=C/c1ccc(-c2ccc(C(=O)O)cc2)o1,-2.98
3,CCOC(=O)C1=C(CSc2nc3ccccc3nc2C)OC(N)=C(C#N)C1c1ccccc1F (stereo not drawn),-1.72
4,O=C(Nc1nn[nH]n1)C12CC3CC(CC(C3)C1)C2,-6.08
5,Nc1c(-c2ccccc2)nc2ccccn12,0.231
6,COc1ccc(/N=C2\S/C(=C\c3c(C)n(CC(=O)O)c4ccccc34)C(=O)N2C)cc1,7.25
7,COc1ccc(CN2CCN(C(=O)CC(C)C)CC2)c(OC)c1,-7.14
8,C=Cc1ccc(Cn2c(C(=O)O)c(CNC3CCCCCCC3)c3ccccc32)cc1,2.81
9,Cc1cc(NS(=O)(=O)c2ccc(NC(=O)COc3ccc(C)c(C)c3)cc2)nc(C)n1,3.64
10,O=C(NC(Cc1ccccc1)C(=O)O)c1ccccc1[N+](=O)[O-] (stereo not drawn),-3.61
11,Cc1ccc(NC(=O)c2cc(F)c(Cl)nc2Cl)c(C)c1,1.89
12,O=C(Nc1ccccn1)c1cc(S(=O)(=O)N2CCCCC2)ccc1Br,-9.81
13,CC(=O)c1c(-c2ccccc2)nn(-c2nc3ccccc3s2)c1O,0.709
14,CC1CCN(c2c(NCC3CCC(C(=O)NCc4ccc5c(c4)OCO5)CC3)c(=O)c2=O)CC1 (stereo not drawn),-3.96
15,N=C(Cc1ccc(Cl)cc1Cl)NOC(=O)c1cccs1,2.17
16,O=C(NC1=NN(c2c(Cl)cc(Cl)cc2Cl)C(=O)C1)c1cccc(N2C(=O)CCC2=O)c1,-1.65
17,COc1ccc(/C(O)=C/C=N/c2ccc3c(c2)OCO3)cc1OC,-0.864
18,COC(=O)c1c(C)[nH]c(C(=O)CSc2nnc3cc(C)c4ccccc4n23)c1C,16.6
19,O=C(Nc1nncs1)c1cccc(S(=O)(=O)N2CCOCC2)c1,3.04
20,O=C(CCCn1ncn2c(cc3occc32)c1=O)NCCCc1ccccc1,-0.281
21,Cc1cc(C)c(OCC(O)CN2CCCC2)c(C)c1 (stereo not drawn),3.8
22,CCOC(=O)N1CCN(Cc2nc3c(c(=O)n(C)c(=O)n3C)n2CC)CC1,-0.499
23,Cc1ccc(F)c(NC(=O)Nc2ccccc2)c1,-0.414
24,COc1ccc(N2CCN(C(=O)c3c(C)nn(-c4ccccc4)c3C)CC2)cc1,-2.46
25,O=C(CSc1nnc2ccc3ccccc3n12)Nc1nsc(-c2ccccc2)n1,2.25

row,SMILES,% Inhibition @ 10 uM [%]
1,COCCCNC(=O)c1cnn(-c2ccc(C)c(C)c2)c1C1CCN(C(=O)OC(C)(C)C)CC1,-5.97
2,CC(C)(C)c1ccc(S(=O)(=O)N2CCCCC2C(=O)NCc2ccccn2)cc1 (stereo not drawn),-0.972
3,Cn1c(NCc2ccco2)nc2c1c(=O)n(Cc1cccc(Br)c1)c(=O)n2C,-6.98
4,CC(C)CC(NC(=O)c1ccc(C23CC4CC(CC(C4)C2)C3)cc1)C(=O)NCc1ccccn1 (stereo not drawn),-1.73
5,CCOC(=O)N1CCC(NCc2cccc(Br)c2)CC1,0.217
6,Cc1c(/C=C2\SC(=S)NC2=O)c(=O)n(-c2ccccc2)n1C,-3.93
7,CC(C)OCCCNC(=O)/C(C#N)=C/c1c(Oc2ccc(Cl)cc2)nc2ccccn2c1=O,1.19
8,COc1ccc(C(=O)NC(C)Cc2c[nH]c3ccccc23)cc1 (stereo not drawn),-3.58
9,Nc1cccc(Oc2ccc(C(c3ccc(Oc4cccc(N)c4)cc3)(C(F)(F)F)C(F)(F)F)cc2)c1,2.7
10,Cc1ccccc1NC(=O)C(Cc1c[nH]c2ccccc12)NC(=O)OC(C)(C)C (stereo not drawn),2.87
11,C/N=C1\S/C(=C\c2ccccc2OCc2ccc(C(=O)O)cc2)C(=O)N1C,1.17
12,CC(C)CN(CC(C)C)C(=O)C1CCN(S(=O)(=O)c2cccc3nsnc23)CC1,1.9
13,CC(NC(=O)c1ccccc1NC(=O)c1ccc(N(C)S(C)(=O)=O)cc1)c1ccccc1 (stereo not drawn),0.245
14,Cc1ccc(OCC(=O)Nc2ccccc2C#N)c(Br)c1,-0.992
15,CN(CCCNC(=O)Cn1ncc2c3ccccc3n(C)c2c1=O)C1CCCCC1,2.99
16,COc1ccc(C(=O)Nc2cccc(Cl)c2Cl)cc1OC,-4.33
17,COc1ccc(-c2cc(C(F)F)n3ncc(C(=O)N4CCCC(C)C4)c3n2)cc1 (stereo not drawn),-0.958
18,CCOc1ccc(NC2=NC(=O)CC(C(=O)Nc3ccc(C)cc3)N2)cc1 (stereo not drawn),0.145
19,COc1ccc(C(=O)N2CCCC(c3ccccc3)C2)cc1 (stereo not drawn),-3.4
20,COc1ccc(C(=O)n2nc(C)c(Br)c2C)cc1OC,4.32
21,Cc1cccc(C(=O)NC(=O)Nc2cc(C)on2)c1,-4.49
22,COc1ccccc1-c1cc(-c2ccccc2)nc2sc(C(=O)c3ccc(-c4ccccc4)cc3)c(N)c12,1.42
23,Fc1ccc(F)c(CN2CCOCC2)c1,2.91
24,Cc1cccn2c(=O)c3cc(C(=O)NCCN4CCOCC4)c(=N)n(CCc4ccccc4)c3nc12,6.7
25,COc1cc2nc(S)n3nc(COc4ccccc4Br)nc3c2cc1OC,-2.29

row,SMILES,% Inhibition @ 10 uM [%]
1,COCc1[nH]nc2c1C(c1ccccc1C)C(C#N)=C(N)O2 (stereo not drawn),7.17
2,CN1CCN(C(=O)CCn2c(=O)c3cccn3c3cccnc32)CC1,6.91
3,Cc1nnc(N2CCC(C(=O)NCCc3c[nH]c4ccccc34)CC2)c2nn(-c3ccccc3)c(C)c12,1.45
4,CCOc1ccccc1C(=O)Nc1ccc(C)cc1Br,1.15
5,COc1cccc(CNC23CC4CC(CC(C4)C2)C3)c1OC,-3.32
6,CN(C)/C=N/c1c(Br)cc(Br)c2nonc12,-2.03
7,COCCNC(=O)c1cc2nc(-c3cccs3)cc(C(F)(F)F)n2n1,14.3
8,CC(C)C[C@H](NC(=O)N1CCN(c2ncccn2)CC1)C(=O)NCC#N,-6.98
9,CCOC(=O)N1CCC(NC(=O)c2ccc3c(c2)ncn3C2CCCC2)CC1,-4.97
10,Cc1ccc(-c2csc(NC(=O)c3ccc(C)o3)n2)cc1,1.27
11,Cn1c(=O)c(S(=O)c2cc(Cl)c(Cl)cc2Cl)c(O)c2ccccc21 (stereo not drawn),6.29
12,CCC(=O)Nc1c(-c2ccccc2)nc2ccc(C)cn12,-5.08
13,CC(=O)NC(C)c1ccc(Br)cc1 (stereo not drawn),3.61
14,CN1CCN(c2ccc(NC(=O)C3CC=CCC3C(=O)O)cc2)CC1 (stereo not drawn),3.58
15,COC(=O)Nc1ccc(S(=O)(=O)N(C)C)cc1,-2.35
16,O=C(c1ccncc1)N(C1CCCCC1)C1CCCCC1,7.82
17,Cc1cc(Cl)ccc1NS(=O)(=O)c1ccc(Cl)cc1,3.83
18,CC(C)CNC(=O)Cn1cnc2c(nc3n2CCCCC3)c1=O,-0.495
19,CCO/N=C(\C(=N/OCC)c1ccccc1)c1ccccc1,5.94
20,O=C(c1ccc(Cl)cc1)N1CCc2c([nH]c3ccccc23)C1,-0.28
21,COc1ccc(OC)c(S(=O)(=O)NC2CCN(Cc3ccccc3)CC2)c1,2.01
22,CC1CCCN(c2nc3c(-c4ccccc4)nnn3c3ccccc23)C1 (stereo not drawn),-6.52
23,Cc1cc(C)c(S(=O)(=O)N(C)CC(=O)NC2CC2)c(C)c1,-0.519
24,Nc1ccc2oc(-c3cccc4c(Br)cccc34)nc2c1,2.92
